Results reported in the supplement of paper PMC3334620.
Over roughly 33,000 sequences, “E-score (-0.5 to 0.5)” has its median near -0.035; the highest 2% begin near 0.34. Some of the results follow.

target: T1, Mot3 (UniProt P54785); experiment: PBM E-score (8-mer binding enrichment) (E-score (-0.5 to 0.5)); higher = stronger / more preferred TF binding; most listed sequences are background and not binding sites; settings: protein concentration: 200 nM; construct: GST-full length
T1 sequence: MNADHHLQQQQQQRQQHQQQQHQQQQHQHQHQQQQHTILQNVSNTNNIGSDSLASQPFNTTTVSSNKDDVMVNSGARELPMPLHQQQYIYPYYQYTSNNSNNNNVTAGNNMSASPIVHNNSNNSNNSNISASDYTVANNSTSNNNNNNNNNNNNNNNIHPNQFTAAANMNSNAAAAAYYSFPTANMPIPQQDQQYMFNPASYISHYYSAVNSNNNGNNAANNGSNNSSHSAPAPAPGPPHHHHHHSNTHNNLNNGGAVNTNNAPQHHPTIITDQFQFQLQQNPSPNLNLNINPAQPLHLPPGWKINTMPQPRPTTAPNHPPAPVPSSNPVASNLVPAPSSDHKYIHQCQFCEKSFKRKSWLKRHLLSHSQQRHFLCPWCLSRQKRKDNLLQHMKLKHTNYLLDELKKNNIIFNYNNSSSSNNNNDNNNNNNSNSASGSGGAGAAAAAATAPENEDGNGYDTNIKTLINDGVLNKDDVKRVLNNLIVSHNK
Protocol: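 Universal 'all 10-mer' protein binding microarrays (Agilent AMADID 015681) probed with GST-tagged S. cerevisiae TFs (full-length or DBD) made by in vitro transcription/translation (PURExpress), about 100-200 nM. Bound TF was detected with fluorescent anti-GST. Each ungapped 8-mer (which stands for itself and its reverse complement) is scored by the PBM enrichment score (E-score), a modified Wilcoxon-Mann-Whitney statistic from -0.5 to +0.5, computed with the Universal PBM Analysis Suite. Scale: above 0.35 generally sequence-specific binding.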

Sequence | PBM E-score
GACTATAC | -0.0783
ACGTTTTA | 0.16
CTCCTATC | -0.0146
ATGCGGGA | -0.0816
ATTTTAAA | 0.132
GTGTAAAA | 0.377
AAGTAGGT | 0.171
AATACACT | 0.259
GCCTTTAC | 0.357
GGTATTGA | -0.0693
AGTGCTTA | -0.00158
CTTGCCAC | -0.112
GTTGGGCA | 0.203
AGTGGGCC | -0.196
GGTCTATA | 0.0699
ACTTTTGA | 0.0586
ACCATCGC | 0.0767
ACACACTG | 0.059
CGACTTCA | -0.0501
ACAATACG | 0.132
CTGCCAGC | -0.192
CCAGAGTA | -0.0687
ACTGCAAG | 0.0351
CACTTATA | -0.0358
TCTTAGAA | 0.0228

Sequence | PBM E-score
GGAGAGTA | -0.322
CATGTAAG | 0.398
CTAAGGCC | -0.0134
AATCCACT | 0.0475
GCCTCGCA | -0.156
ACGTGTCT | 0.14
CCGAGGAA | -0.00332
CCCAACCG | -0.231
AGGATTGG | -0.12
AGAAGCAA | 0.146
AACCGCTC | -0.0669
AGAGATCG | -0.0504
CACAAGTA | 0.0666
ACCCATCG | -0.107
CCTACACA | 0.311
ATGCCGGG | -0.234
ATGAGCAG | -0.0848
ACTTTGCG | -0.0351
ACCATCCG | -0.0418
TCAGCTGA | 0.111
AGACAACG | 0.0923
CGGATGAG | -0.235
ACGGTAGA | -0.183
AAAAGAGA | -0.0482
AATTATAC | 0.147

Sequence | PBM E-score
CAATGACC | -0.0882
GCGTGATA | -0.0238
CTGAGGTA | -0.0122
CACTAAGG | -0.0602
ACACATAT | 0.176
ACAGTGCA | 0.0846
CACGGATA | 0.093
ACTTCATA | -0.0786
AATAGCCG | 0.0694
AAAGTGCC | 0.155
GCTATTGA | -0.0881
CATTGTTC | 0.102
AACATCCG | 0.144
AACTTTGC | 0.0198
CGAGTTTA | -0.0664
GTTGCTTA | 0.0798
CCAAATTA | 0.128
AAACCGAA | -0.0393
CCCTAACG | -0.0373
CCACTTTA | -0.0759
GCGTGTTA | 0.393
AGCGAGCC | -0.153
AGAGAGTC | -0.265
ACCCAAGA | -0.165
GACGTACA | 0.161

Sequence | PBM E-score
GTTTCAGA | -0.0444
CCGTCGGC | -0.214
GAAATAGC | 0.114
TGATCAAA | -0.236
ATAGTAAA | 0.247
CAACCCGG | -0.133
CCAGTCAC | -0.0506
CGTTACCC | -0.19
CTGCGGCA | -0.211
AACCGCCA | -0.0893
ACTCCGAC | -0.0607
ATGCTAAC | 0.156
CTCAGAAG | -0.185
ACGGGTGG | -0.142
CATAACAA | 0.302
AGACCGCT | -0.17
CCACCTAA | -0.0127
CAATGGTG | -0.164
ATGGTTCC | 0.0253
CGACCGAG | -0.308
GTGGGAGA | -0.222
CAACTTGC | -0.0812
CATCGAGA | -0.133
AAAATTGC | 0.0171
AGCTCTGG | -0.238

Sequence | PBM E-score
CGCGCACA | 0.0112
AAAATGTC | 0.0358
AAATCCCC | -0.208
CCAGAGCG | -0.325
ACGTCTAC | 0.0656
AACTTGGC | 0.139
AGCCTGAA | 0.223
ATGCTCGC | -0.0921
CTAACTAA | -0.0879
AAGTCGCC | -0.135
GTGGGCAA | 0.0173
CCTGGACC | -0.141
ACCCCACG | -0.0319
ATCGGAAC | -0.146
GCGCTAAC | 0.0565
CAGGCAAA | 0.481
CATGAATA | 0.055
ACACACTC | 0.123
AACGCCTA | 0.122
CGGGAACG | -0.287
ACCCCGAG | -0.137
AGTCCTCG | -0.234
AGGCCTGC | -0.199
GGAGCGGA | -0.366
AAGTGTGG | -0.129

Sequence | PBM E-score
ATCACACA | 0.143
CATCGACA | -0.0588
ACCATTGG | -0.0313
ACTGACGG | -0.296
ACTCCCTC | -0.312
GACGCATA | 0.029
AGACCACG | -0.314
GTGGAAAA | 0.0872
GTGCGAAA | 0.0374
AGGACTTC | -0.217
AAACAAGA | 0.191
GGTGAGTA | 0.0296
AGCAGCGC | 0.0375
CCAGCGTC | -0.408
CACTCATC | -0.147
CGCGCCAC | -0.141
AGACCCAA | -0.222
AGTAGCAA | 0.0301
CAAAACCC | 0.023
GTCAATTA | 0.134
ACGGTGCG | 0.0148
ACACGAAA | 0.279
TAGTTATA | 0.171
CGCGATCC | -0.0665
GACAATGC | 0.123

Sequence | PBM E-score
GAGATCCA | -0.28
AATTCCGA | 0.0959
AGATCTGG | -0.227
AGAGATTC | -0.0172
GGCAACAA | 0.31
ACATGCCT | 0.366
ATTCTGAG | 0.0253
TATTGTCA | -0.117
ATTTCACA | 0.152
CATCTTCG | -0.187
GTCACTGA | -0.15
CTTACAAA | 0.15
ACCGCCGA | -0.0975
CACACGTC | 0.197
AAGTCACT | 0.0807
CAGATGTC | -0.239
ACTCCCGG | -0.182
CCCCGTAC | -0.258
GGCTGCCA | -0.192
AACGGAGC | -0.015
AGACACCG | -0.0613
ACCCATGC | 0.0158
TCATCAGA | -0.15
AACCAACG | -0.0703
TATTTCGA | 0.0769

Sequence | PBM E-score
GGTGGTAC | -0.157
GAGGAAGC | -0.225
ATGACAGC | -0.208
CTCAGCTC | -0.243
CCTCCCTA | -0.172
GATGGAGA | -0.26
AAGATCTC | -0.0117
GGGAACAC | 0.0104
CGACCAAC | -0.0351
AATACTAG | 0.225
ACGGGGCC | -0.252
CTTTAAGC | -0.00833
CTCGATCC | -0.161
CTCTACCC | -0.225
TAGGAAAA | 0.384
CTCCTAAA | 0.00392
CAATATTA | 0.0698
ACCGCTTA | -0.0982
CCGTCTTA | -0.231
GACTTGAC | 0.024
AATGAAGC | -0.0388
CCCTGTCC | -0.124
CGCCATTA | -0.0118
CTGCAAAC | -0.0163
CAGCAAGA | -0.117

Sequence | PBM E-score
AATCGCTG | -0.184
CGAATGTA | 0.186
GCGGCAAA | -0.205
AATCCCCC | -0.267
ATGTAATC | 0.367
AGAGATTG | 0.0517
AGAGCTGA | -0.205
AGGCGGAG | -0.273
GCGCAGCC | -0.343
AGTCGGCA | 0.00196
ATTGTTCC | 0.0862
AAGCTCGG | -0.178
GCGTTGCC | 0.177
CTTAGCGA | 0.0773
CAATGTCG | 0.0795
AATGAGTC | -0.0515
AGCGCCTG | 0.265
GACCATTA | -0.0478
ACTTACAC | 0.217
